# Experimental data from PubChem BioAssay AID1347073 (National Center for Advancing Translational Sciences (NCATS), 2019).
# Hit rate of the full screen: of about 45,000 compounds, about 200 (0.44%) were called active. About 7% were inconclusive and are not listed. The call rests on the fitted dose curve; in most records, active means well fitted activation curve with a large enough effect; inconclusive means small, poorly fitted or top-dose-only effect; inactive means no such curve, though single readings can be large or run the other way. The list shows a part of the results.
# Test: qHTS of TDP-43 Inhibitors: NCGC Sytravon Library Screen; further: nearly all actives have a fitted effect of over 55% in size; on growth rescue (activation): 0% is about no effect
# Conditions: yeast TDP-43 toxicity rescue, BacTiter-Glo growth, 24 h; series mostly up to 46.1 µM; growth rescue (activation): at the top concentration
# Outline: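 TDP-43-expressing yeast, pregrown in raffinose, seeded at OD600 0.02 in galactose medium with compound for 24 hr at 30 deg C. Growth read by BacTiter-Glo luminescence, so rescue of toxicity appears as activation.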
# Potency means the concentration at half of the fitted maximal effect.
Compound,growth rescue (activation),Potency
O=C(COC(=O)C1CCN(S(=O)(=O)c2cccs2)CC1)Nc1ccccc1,inactive: 5.32%,
Cc1onc(-c2ccccc2Cl)c1C(=O)N1CCN(C)CC1,inactive: 7.67%,
CCC1(Cc2ccccc2)NC(=O)c2ccccc2O1 (stereo unspecified),inactive: 13.6%,
O=c1[nH]c(C2CCCCC2)nc2ccccc12,inactive: 38.6%,
CC(C)(CNC(=O)C1CCN(S(=O)(=O)c2cc([N+](=O)[O-])ccc2Cl)CC1)N1CCOCC1,inactive: 1.27%,
CC(=O)c1c(C)[nH]c(C(=O)OCc2cc(-c3ccco3)on2)c1C,inactive: 10.8%,
COc1ccc(CN(C)CC(=O)Nc2ccc(N3CCOCC3)cc2)cc1OC,inactive: 12.4%,
CCOc1ccc2[nH]c(C(=O)N/N=C/c3ccc(OC)cc3)cc2c1,inactive: 11.5%,
Cc1cccc(CCNS(=O)(=O)c2cnc[nH]2)c1,inactive: 13.1%,
CC(NS(=O)(=O)c1ccc2c(c1)CC(=O)N2C)c1ccccc1 (stereo unspecified),inactive: -9.22%,
Cc1ccc(C(=O)N2CCCCC2)cc1S(=O)(=O)N1CCOCC1,inactive: 24%,
O=c1[nH]nc(-c2cccs2)c2ccccc12,inactive: 5.13%,
Cc1cc2cc(CN(Cc3ccc4c(c3)OCO4)C(=O)c3ccco3)c(=O)[nH]c2cc1C,inactive: 20.4%,
Cc1cccn2c(CN(C)C3CCOC3)c(C(=O)N3CCCCC3)nc12 (stereo unspecified),inactive: 1.85%,
COc1ccc(CN2CCNC(=O)C2CC(=O)NCCc2nc(C)c(C)s2)c(OC)c1 (stereo unspecified),inactive: 10.7%,
Cc1ccc(CN2CCN(Cc3cn(C(C)C)c4ccccc34)CC2CCO)o1 (stereo unspecified),inactive: 22.2%,
O=C1C2C3C=CC(O3)C2C(=O)N1CC(O)c1ccccc1 (stereo unspecified),inactive: -23.6%,
Cc1[nH]n(-c2ccccc2)c(=O)c1C=NC1CCCCCC1,inactive: 16.6%,
COc1ccccc1/C=C(/CC(=O)NCc1ccccc1)c1nc2ccccc2s1,inactive: 21.8%,
CCOc1ccccc1N1CCN(C(=S)Nc2ccc(S(N)(=O)=O)cc2)CC1,inactive: -1.31%,
COc1cccc(OC)c1C(=O)NC(=S)Nc1ccc2oc(-c3ccncc3)nc2c1,inactive: 14.1%,
O=C(Nc1ccccc1N1CCOCC1)c1ccc([N+](=O)[O-])s1,inactive: -75%,

Compound,growth rescue (activation),Potency
Cc1ccc(C)[n+](CC(=O)N2CCCCC2)c1,inactive: -15.1%,
O=C1N/C(=N/N=C/c2ccccc2O)SC1Cc1ccc(F)cc1 (stereo unspecified),inactive: 18.5%,
COc1ccc(NC(=O)COc2cccc(-n3cnnn3)c2)cc1,inactive: -8.92%,
O=C(CN(c1ccccc1)S(=O)(=O)c1ccccc1[N+](=O)[O-])N1CCCC1,inactive: 11.9%,
Cc1ccccc1OCCC(=O)OCC(=O)Nc1ccc(C(N)=O)cc1,inactive: -41.3%,
CC1CCCN(C2=NC(=O)/C(=C/c3cn(-c4ccccc4)nc3-c3cccc(S(=O)(=O)N(C)C)c3)S2)C1 (stereo unspecified),inactive: 12.6%,
COc1ccc(S(=O)(=O)N2CCC(C(=O)NCC3CCCO3)CC2)cc1Cl (stereo unspecified),inactive: -10.4%,
Cc1ccccc1NS(=O)(=O)c1ccc(C)c(NS(C)(=O)=O)c1C,inactive: 4.72%,
Cc1ccc(NC(=O)COC(=O)c2sccc2C)cc1S(=O)(=O)N1CCOCC1,inactive: -1.37%,
Cn1ccnc1SCC(=O)c1ccc(Cl)cc1,inactive: 19.4%,
Cc1cnc(C(=O)OCC(=O)N2CCC(C)CC2)cn1,inactive: 21.3%,
CC/C(=N\NC(=S)NC(C)C)c1ccc(OC)c(OC)c1,inactive: 9.91%,
COc1ccc(CNC(=O)C2CCN(S(=O)(=O)c3ccc(Br)s3)CC2)cc1,inactive: 5.68%,
CC(=O)c1cc2c(cc1NC(=O)C1CN(C(C)=O)c3ccccc3O1)OCO2 (stereo unspecified),inactive: 20.7%,
O=C(CN(c1ccccc1)S(=O)(=O)c1ccccc1)Nc1ccccc1C(=O)NCc1ccco1,inactive: 7.69%,
O=C(CN1CCN(Cc2ccccc2)CC1)Nc1ccccc1-c1ccccc1,inactive: 2.18%,
COc1ccc(C(=O)Nc2cc3cc(Cl)ccc3oc2=O)cc1OC,inactive: 2.75%,
CCN(CC(=O)Nc1ccc(OC)c(OC)c1)CC(=O)Nc1ccccc1C(F)(F)F,inactive: -4.32%,
Cc1ccc(C(=O)CSc2nc3ccccc3c(=O)[nH]2)cc1C,inactive: 12.6%,
COc1ccc(/C=N/NC(=O)C2c3ccccc3-c3ccccc32)cc1,inactive: -7.93%,
COc1ccc(C(CC(=O)O)n2cnnn2)cc1 (stereo unspecified),inactive: -1.61%,
CC1CCCCC1NC(=O)C1CCN(S(=O)(=O)c2cccc3nonc23)CC1 (stereo unspecified),inactive: 21.5%,

Compound,growth rescue (activation),Potency
CC1CC(=O)Nc2ccccc2S1(=O)=O (stereo unspecified),inactive: -34.1%,
COc1ccc(-c2cn[nH]c2C)cc1OC,inactive: -4.08%,
NC(N)=Nc1nc(-c2ccccc2)c2cc(F)ccc2n1,inactive: 3.53%,
CCOc1cc(C2C(C#N)=C(N)Oc3n[nH]c(-c4ccncc4)c32)cc([N+](=O)[O-])c1O (stereo unspecified),inactive: -4.9%,
CCc1nc2ccc(C(=O)NCCCn3ccnc3)cn2c1N(C)CCC(C)C,inactive: 5.77%,
Cn1ccnc1SCc1ccc(Cl)cc1Cl,inactive: 29.5%,
Cc1nonc1CN(C)C(=O)CC1C(=O)NCCN1Cc1ccccc1F (stereo unspecified),inactive: 8.04%,
Cc1nc(SCC(=O)N2CCCC2=O)nc(C)c1C,inactive: -7.57%,
COC(C(=O)Nc1ccc(S(=O)(=O)Nc2cccc3ccccc23)cc1)c1ccccc1 (stereo unspecified),inactive: 8.52%,
O=S(=O)(c1ccc(Cl)cc1)N1CCN(c2nc(-c3cccs3)nc3ccccc23)CC1,inactive: 13.4%,
COc1ccc(C2OCC3(CO2)SC(=O)NC3=O)cc1 (stereo unspecified),inactive: -4.73%,
O=C(COc1ccccc1F)OCC(=O)c1ccc([N+](=O)[O-])cc1,inactive: 8.6%,
c1ccc(-c2cnnc(SCc3cn4cccnc4n3)n2)cc1,inactive: 18.7%,
CN(NS(C)(=O)=O)c1ncc(C(F)(F)F)cc1Cl,inactive: -4.23%,
O=C1NC(=S)N/C1=C\c1ccccc1OCc1ccc(C(=O)O)cc1,inactive: -10.1%,
COc1ccc(N2CCN(C(=O)CN3C(=O)COc4ccccc43)CC2)cc1,inactive: 19.1%,
CCC(Sc1nc2ccccc2[nH]1)C(=O)Nc1ccc(NC(C)=O)cc1 (stereo unspecified),inactive: 10.9%,
C=CCc1ccc(OCCCCN2CC(C)CC(C)C2)c(OC)c1 (stereo unspecified),inactive: -5.27%,
CCOc1ccccc1Nc1nc2ccccc2n1C(C)C,inactive: 1.78%,
COc1ccccc1NC(=O)CSc1nc(N)c(-c2ccccc2)c(=O)[nH]1,inactive: -1.39%,
O=C(N/N=C/c1ccccc1)c1cc(-c2ccc3c(c2)OCO3)n[nH]1,inactive: 11.3%,
COc1cc(C(c2c(C)[nH][nH]c2=O)c2c(C)[nH][nH]c2=O)cc(OC)c1OC,inactive: -3%,

Compound,growth rescue (activation),Potency
Cc1c(NS(=O)(=O)c2ccc3nc(COc4ccccc4Cl)[nH]c3c2)c(=O)n(-c2ccccc2)n1C,inactive: 11.2%,
O=C(COC(=O)c1cc(Br)ccc1O)NC12CC3CC(CC(C3)C1)C2,inactive: -6.31%,
O=C(O)CC(SCC(=O)Nc1ccccc1)C(=O)O (stereo unspecified),inactive: -25.9%,
CN(CCC#N)C(=O)COC(=O)c1c2c(nc3ccccc13)/C(=C\c1ccco1)CC2,inactive: 26.4%,
CC(=O)c1c(C)[nH]c(C(=O)CSc2ncnc3sc(-c4ccccc4)cc23)c1C,inactive: 13.7%,
COCCN=c1scc(-c2cc(OC)ccc2OC)n1/N=C/c1c[nH]c2ccccc12,,active: 20 µM
CCNC(=O)N(C)c1nncnc1C(=O)NC,inactive: -6.99%,
OC(c1ccccc1)c1ncc(-c2ccccc2F)[nH]1 (stereo unspecified),inactive: 10%,
Cc1ccc2c(c1)/C(=N/N1C(=O)c3ccccc3C1=O)C(=O)N2,inactive: 12%,
Cc1ccc(C(=O)COC(=O)CCCC(=O)Nc2cc(C(F)(F)F)ccc2Cl)cc1C,inactive: 15.4%,
Cc1csc(=Nc2ccc(S(=O)(=O)N3CCOCC3)cc2)n1Cc1ccco1,inactive: 8.71%,
COc1ccc(S(=O)(=O)N2CCN(C)CC2)cc1C(=O)N1CCCCC1,inactive: 0.858%,
O=c1cc(CSc2nnc(NC3CCCCC3)s2)nc2sccn12,inactive: 10.9%,
COc1ccc(Cl)cc1NC(=O)c1[nH]c(C)c(C(C)=O)c1C,inactive: -6.58%,
COC1=CCC2([N+](=O)[O-])CN(CCO)CC1([N+](=O)[O-])C2 (stereo unspecified),inactive: -1.53%,
CCOc1cccc(C(=O)Nc2ccc(N3CCCC3)cc2)c1,inactive: 13.7%,
Cc1ccc(C2CCN(C(=S)NC(C)C)C2)cc1 (stereo unspecified),inactive: 23%,
COc1ccc(C2=NN(C(=O)COc3ncnc4ccccc34)C(c3ccco3)C2)cc1 (stereo unspecified),inactive: 4.3%,
COc1cc(NC(=S)N2CCN(C(=O)c3ccco3)CC2)c(OC)cc1Cl,inactive: -5.75%,
COc1cccc(-c2nc(-c3cccs3)no2)c1,inactive: -0.886%,
O=C(COC(=O)Cc1c(F)cccc1Cl)Nc1ccc2[nH]c(=O)[nH]c2c1,inactive: -13.7%,
CNc1nc(N/N=C/c2cc3c(cc2[N+](=O)[O-])OCO3)nc(Nc2ccccc2)n1,inactive: 24.2%,

Compound,growth rescue (activation),Potency
Cc1sc2ncnc(SCC(=O)Nc3ccc(S(=O)(=O)N4CCOCC4)cc3)c2c1C,inactive: -11.5%,
COc1cccc(/C=N/NC(=O)CNC(=O)c2ccc3c(c2)OCCO3)c1O,inactive: 7.05%,
Cc1ccc(NCc2cccn2-c2nnc(N3CCC(C(=O)NCc4ccccc4C)CC3)s2)cc1,inactive: 0.524%,
COc1ccc([N+](=O)[O-])cc1-n1cccc1,inactive: -13%,
Cc1nn(-c2ccccc2)cc1/C=N/NS(=O)(=O)c1ccccc1,inactive: 17.4%,
CC1(c2ccccc2Cl)NC(=O)N(CC(=O)N2CCc3ccccc32)C1=O (stereo unspecified),inactive: -15.5%,
Cc1cc(NC(=O)C2CC(=O)N(c3cccc(C)c3C)C2)no1 (stereo unspecified),inactive: 16%,
O=C(Cc1c(Cl)cccc1Cl)OCc1ccccn1,inactive: -27%,
CN(C(=O)CSc1nc2ccc(NC(=O)COc3ccc(F)cc3)cc2s1)c1ccccc1,inactive: 35%,
Cc1cccc(N(CC(=O)NC2CCCC2)C(=O)CNC(=O)c2ccco2)c1C,inactive: 6.29%,
C#CCSc1nc(N)c2c(n1)OC(N)=C(C#N)C2c1cccnc1 (stereo unspecified),inactive: 6.29%,
CCc1[nH]nc(C(=O)N2CCCC(N3CCN(c4ccccc4C)CC3)C2)c1C (stereo unspecified),inactive: 1.99%,
NS(=O)(=O)c1ccc(CNC(=O)c2ccc(S(=O)(=O)C(F)F)cc2)cc1,inactive: 27.6%,
COc1ccc(NC(=O)C2CC(=O)N/C(=N/NC(=O)c3ccc(Cl)cc3)S2)cc1 (stereo unspecified),inactive: 14.1%,
CCN(Cc1ccccc1)c1ccc(/C=N/NS(=O)(=O)c2ccc(C)c([N+](=O)[O-])c2)cc1,inactive: -9.87%,
COc1cc(-c2cc(C(=O)Nc3ccc(S(N)(=O)=O)cc3)c3ccccc3n2)cc(OC)c1OC,inactive: -5.08%,
CN1CCC(=NNC(=O)c2cc(-c3ccc(Cl)cc3)n[nH]2)CC1,inactive: 0.174%,
Cc1ccc(C(=O)NC2CCCCCC2)cc1S(=O)(=O)N1CCOCC1,inactive: -13.6%,
